# Laboratory results as given in PubChem BioAssay (NCI).
#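 Compound exposure: 48 hours, 5 concentrations, 96-well plates. GI50: concentration for 50% inhibition of growth.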 Certain results were filed several times, with different values. Only these are listed. There may be further records. For some assays here: A record mostly stands for its own series of concentrations, not given here; a value can be the end of its range. A tag in brackets gives the origin of a value. A, B and so on number the origins entry by entry. For some assays here: Values given together repeat one measurement across runs, samples, wells, individuals or studies.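 TGI is the concentration that stops growth completely.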
# How the values were obtained:
# Assay in all cases: NCI tumour cell line growth inhibition, 48 h
# [1] = system: HL-60(TB) leukemia
# [2] = system: DMS 273 small cell lung
# [3] = system: UO-31 renal
# [4] = system: HCC-2998 colon
# [5] = system: RXF 393 renal
# [6] = system: MDA-N
# [7] = system: NCI-H460 lung
# [8] = system: HCT-15 colon
# [9] = system: P388 leukemia
# [10] = system: UACC-62 melanoma
# [11] = system: M14 melanoma
# [12] = system: HOP-62 NSCLC
# [13] = system: SF-539 CNS
# [14] = system: MCF7 breast
# [15] = system: MOLT-4 leukemia
# [16] = system: OVCAR-5 ovarian
# [17] = system: NCI-H23 lung
# [18] = system: MDA-MB-435
# [19] = system: LOX IMVI melanoma
# [20] = system: MALME-3M melanoma
# [21] = system: RPMI-8226 leukemia
# [22] = system: EKVX NSCLC
# [23] = system: OVCAR-8 ovarian
# [24] = system: SR leukemia
# [25] = system: TK-10 renal
# [26] = system: NCI-H522 lung
# [27] = system: CCRF-CEM leukemia
# [28] = system: SN12K1 renal
# [29] = system: NCI/ADR-RES ovarian
# [30] = system: UACC-257 melanoma
# [31] = system: DMS 114 small cell lung
# [32] = system: A498 renal
# [33] = system: DU-145 prostate
# [34] = system: A549 NSCLC
# [35] = system: CAKI-1 renal
# [36] = system: SK-OV-3 ovarian
# [37] = system: ACHN renal
# [38] = system: HOP-92 NSCLC
# [39] = system: P388/ADR leukemia
# [40] = system: HCT-116 colon
# [41] = system: OVCAR-4 ovarian
# [42] = system: HS 578T breast
# [43] = system: PC-3 prostate
# [44] = system: XF 498 CNS
# [45] = system: SK-MEL-5 melanoma
# [46] = system: SK-MEL-2 melanoma
# [47] = system: MDA-MB-231 breast
# [48] = system: OVCAR-3 ovarian
# [49] = system: COLO 205 colon
smiles,measurement,setting,value
Nc1nc(=S)c2ncn(C3CC(O)C(CO)O3)c2[nH]1 (centres undefined),TGI,[1],"26 µM [sample A, mean of 9 tests] and 1.34 mM [sample B, mean of 7 tests]"
same,GI50,[2],"384 nM [sample A, mean of 4 tests] and 38.8 µM [sample B, mean of 5 tests]"
same,TGI,[2],"21 µM [sample A, mean of 4 tests] and 400 µM [sample B, mean of 5 tests]"
same,TGI,[3],"152 µM [sample A, mean of 10 tests] and 3.91 mM [sample B, mean of 9 tests]"
same,TGI,[4],"44.3 µM [sample A, mean of 6 tests] and 1.06 mM [sample B, mean of 7 tests]"
same,TGI,[5],"21.6 µM [sample A, mean of 9 tests] and 3.05 mM [sample B, mean of 9 tests]"
same,TGI,[6],"62.4 µM [sample A, mean of 3 tests] and 3.54 mM [sample B, mean of 4 tests]"
same,TGI,[7],"12.9 µM [sample A, mean of 9 tests] and 790 µM [sample B, mean of 9 tests]"
same,TGI,[8],"99.2 µM [sample A, mean of 7 tests] and 1.63 mM [sample B, mean of 10 tests]"
same,GI50,[9],"324 nM [sample A, mean of 7 tests] and 29 µM [sample B, mean of 5 tests]"
same,TGI,[9],"27.6 µM [sample A, mean of 7 tests] and > 3.8 mM [sample B, mean of 5 tests]"
same,GI50,[10],"314 nM [sample A, mean of 10 tests] and 58.7 µM [sample B, mean of 10 tests]"
same,TGI,[10],"8.59 µM [sample A, mean of 10 tests] and 792 µM [sample B, mean of 10 tests]"
same,GI50,[11],"312 nM [sample A, mean of 4 tests] and 67.6 µM [sample B, mean of 4 tests]"
same,TGI,[11],"20.2 µM [sample A, mean of 4 tests] and 2.5 mM [sample B, mean of 4 tests]"
same,TGI,[12],"66.7 µM [sample A, mean of 9 tests] and 3.06 mM [sample B, mean of 10 tests]"
same,TGI,[13],"275 µM [sample A, mean of 10 tests] and 3.25 mM [sample B, mean of 8 tests]"
same,TGI,[14],"142 µM [sample A, mean of 7 tests] and 2.4 mM [sample B, mean of 8 tests]"
same,TGI,[15],"26.8 µM [sample A, mean of 11 tests] and 2 mM [sample B, mean of 9 tests]"
same,TGI,[16],"432 µM [sample A, mean of 10 tests] and > 4.76 mM [sample B, mean of 9 tests]"
same,TGI,[17],"129 µM [sample A, mean of 9 tests] and 2.6 mM [sample B, mean of 7 tests]"
same,TGI,[18],"26.7 µM [sample A, mean of 4 tests] and 1.49 mM [sample B, mean of 4 tests]"
same,GI50,[19],"262 nM [sample A, mean of 8 tests] and 16.1 µM [sample B, mean of 10 tests]"
same,TGI,[19],"9.7 µM [sample A, mean of 8 tests] and 1.76 mM [sample B, mean of 10 tests]"
same,TGI,[20],"80.4 µM [sample A, mean of 9 tests] and 2.31 mM [sample B, mean of 9 tests]"
same,TGI,[21],"19.3 µM [sample A, mean of 10 tests] and 1.46 mM [sample B, mean of 9 tests]"
same,TGI,[22],"118 µM [sample A, mean of 9 tests] and 1.32 mM [sample B, mean of 9 tests]"
same,TGI,[23],"116 µM [sample A, mean of 11 tests] and 1.42 mM [sample B, mean of 10 tests]"
same,GI50,[24],"206 nM [sample A, mean of 3 tests] and 95.5 µM [sample B, 1 test] and 36.5 µM [sample B, mean of 2 tests]"
same,TGI,[24],"5.62 µM [sample A, mean of 3 tests] and > 5 mM [sample B, mean of 2 tests]"
same,TGI,[25],"16 µM [sample A, mean of 3 tests] and 799 µM [sample B, mean of 4 tests]"
same,TGI,[26],"20.4 µM [sample A, mean of 7 tests] and 1.27 mM [sample B, mean of 8 tests]"
same,GI50,[27],"262 nM [sample A, mean of 9 tests] and 25.3 µM [sample B, mean of 8 tests]"
same,TGI,[27],"25.1 µM [sample A, mean of 9 tests] and 3.92 mM [sample B, mean of 8 tests]"
same,GI50,[28],"422 nM [sample A, mean of 6 tests] and 45.9 µM [sample B, mean of 5 tests]"
same,TGI,[28],"17 µM [sample A, mean of 6 tests] and 1.94 mM [sample B, mean of 5 tests]"
same,TGI,[29],"111 µM [sample A, mean of 10 tests] and 2.06 mM [sample B, mean of 9 tests]"
same,TGI,[30],"355 µM [sample A, mean of 8 tests] and > 3.75 mM [sample B, mean of 8 tests]"
same,TGI,[31],"227 µM [sample A, mean of 5 tests] and 2.79 mM [sample B, mean of 5 tests]"
same,TGI,[32],"51.4 µM [sample A, mean of 11 tests] and 1.63 mM [sample B, mean of 10 tests]"
same,GI50,[33],"334 nM [sample A, mean of 3 tests] and 70.8 µM [sample B, mean of 3 tests]"
same,TGI,[33],"272 µM [sample A, mean of 3 tests] and > 4.28 mM [sample B, mean of 3 tests]"
same,TGI,[34],"121 µM [sample A, mean of 10 tests] and 2.41 mM [sample B, mean of 10 tests]"
same,TGI,[35],"15.5 µM [sample A, mean of 9 tests] and 3.3 mM [sample B, mean of 8 tests]"
same,TGI,[36],"31.5 µM [sample A, mean of 11 tests] and 1.03 mM [sample B, mean of 9 tests]"
same,TGI,[37],"128 µM [sample A, mean of 3 tests] and 1.34 mM [sample B, mean of 4 tests]"
same,TGI,[38],"61.8 µM [sample A, mean of 7 tests] and 2.39 mM [sample B, mean of 7 tests]"
same,GI50,[39],"274 nM [sample A, mean of 4 tests] and 74.1 µM [sample B, mean of 5 tests]"
same,TGI,[39],"268 µM [sample A, mean of 4 tests] and > 5 mM [sample B, mean of 5 tests]"
same,TGI,[40],"127 µM [sample A, mean of 10 tests] and 3.28 mM [sample B, mean of 9 tests]"
same,TGI,[41],"99.2 µM [sample A, mean of 10 tests] and 1.66 mM [sample B, mean of 9 tests]"
same,TGI,[42],"270 µM [sample A, mean of 4 tests] and 3.27 mM [sample B, mean of 4 tests]"
same,TGI,[43],"127 µM [sample A, mean of 4 tests] and > 3.9 mM [sample B, mean of 4 tests]"
same,TGI,[44],"3.9 µM [sample A, mean of 4 tests] and 278 µM [sample B, mean of 5 tests]"
same,TGI,[45],"10.8 µM [sample A, mean of 9 tests] and 1.25 mM [sample B, mean of 9 tests]"
same,TGI,[46],"15.4 µM [sample A, mean of 9 tests] and 1.54 mM [sample B, mean of 9 tests]"
same,TGI,[47],"187 µM [sample A, mean of 4 tests] and 2.52 mM [sample B, mean of 4 tests]"
same,TGI,[48],"21.7 µM [sample A, mean of 9 tests] and 684 µM [sample B, mean of 8 tests]"
same,TGI,[49],"8.02 µM [sample A, mean of 8 tests] and 583 µM [sample B, mean of 8 tests]"
